# Reference: ChEMBL document CHEMBL4888484, “Replenishing the malaria drug discovery pipeline: Screening and hit evaluation of the MMV Hit Generation Library 1 (HGL1) against asexual blood stage Plasmodium falciparum ,using a nano luciferase reporter read-out” (2022)
# In all, about 150,000 compounds went through this assay and about 540 (0.36%) showed an effect of 50% or more. This is one part of the list.
# Tested on: Plasmodium falciparum
# Test: Primary screen in NF54 nanoGlo assay, in single point, at 2uM, 72h; a lower Z score goes with more inhibition
# Assay type: functional, Erythrocyte
# Settings: timepoint 72 hour
Compound,% Inhibition,Z score
C[C@H]1CCc2n[nH]c(C(=O)N(C)CCc3noc(C4CC4)n3)c2C1,6%,-0.88
Cc1ccc(N[C@@H]2CC(C)Nc3ccc(C)cc32)cc1 (stereo not given in full),-10%,1.23
O=C(Nc1cccc(C(F)(F)F)c1)N[C@H]1CO[C@H]2[C@@H]1OC[C@H]2OC(=O)Nc1ccc(Oc2ccccc2)cc1,35%,-3.93
CC(C)C(=O)NCCc1csc(C2CCN(C(=O)Nc3cccc(F)c3)CC2)n1,-10%,1.89
Cc1ncsc1CCN(C)Cc1cccc(C(=O)O)n1,-3%,0.44
CC(C)N1CCO[C@@H](CC(=O)NCc2ccccc2C(F)(F)F)C1,-16%,1.75
Cc1cc(CNc2nc(CCc3ccccc3)nc3c2cnn3C)n[nH]1,-7%,1.38
Cc1nc[nH]c1CN1CCNC(=O)[C@@H](CC(C)C)NC(=O)c2cc(F)ccc2OCCn2cc(nn2)CC1,-3%,0.38
CCCN(C(=O)c1cccs1)C1CCN(C(=O)C2CC(C)(O)C2)CC1 (stereo not given),-8%,1.53
CCc1nc(NC2=NC(C)(C)C=C(C)N2)nc2ccccc12,1%,-0.17
NS(=O)(=O)CC1CCCCN1C(=O)CC1CC2CCC1C2 (stereo not given),2%,-0.19
O=C1C(CS(=O)(=O)c2ccc(F)cc2)=Nc2cccn21,4%,-0.6
NC(=O)CCNC(=O)c1cn2cc(-c3ccccc3Cl)n(CC3CC3)c(=O)c2n1,-12%,2.35
O=C(Cn1nc2c3ccc(Cl)cc3ncn2c1=O)NCc1ccc(F)cc1,-2%,0.38
Cc1nc(N)nc(C)c1CC(=O)N(C)Cc1csc(-c2ccccc2)n1,0%,-0.01
CC(C)Cc1n[nH]c(NC(=O)c2csc(NC3CC3)n2)n1,-11%,1.17
COCCCN(CCC(=O)NCCN1CCOCC1)C(=O)c1cc(C)oc1C,3%,-0.43
CCCC(CCC)C(=O)NCc1cccnc1,5%,-0.71
COc1cccc(-c2nc3c([nH]2)CCN(C(=O)CC(C)(C)C)C3)c1,0%,0.08
CCc1nc(CNC(=O)NCC2CCCOC2C(C)(C)C)cs1 (stereo not given),-7%,0.89
Cn1n[n+](CC#N)c(C(=O)Nc2ccccc2)c1[O-],3%,-0.46
C[C@@H](Cn1ccnc1)NC(=O)Cc1cccs1,-13%,1.13

Compound,% Inhibition,Z score
CC(C)c1nc(-c2noc(CS(=O)(=O)C3CC3)n2)cs1,-12%,1.81
CCOC(=O)N1CCN(C(=O)C2c3ccccc3C(=O)N(C3CCCCC3)C2c2ccc(OC)cc2)CC1 (stereo not given),40%,-4.5
CC1CCN(Cc2ccccc2CNc2ccc3nnnn3n2)CC1,-3%,0.24
O=C1NCC2(CCN(c3ncccc3C(F)(F)F)CC2)O1,-5%,0.82
O=C1CCc2cc(C(=O)c3c(F)cccc3F)ccc2N1,-2%,0.32
COc1ccc(C(=O)N2CC[C@H](Nc3cccnc3)C2)c(OC)c1,-11%,1.36
CC[C@](C)(O)c1cn(Cc2coc(C(C)(C)C)n2)nn1,-13%,1.45
CNC(=O)[C@@H]1C[C@H](Oc2ccccc2)CN1S(=O)(=O)c1cc(OC)ccc1OC,-11%,1.47
COc1ccccc1-c1nc(NCCc2ccccc2)nc2nn(-c3cccc(F)c3)c(N)c12,-1%,0.18
c1ccn2cc(Cc3nc(C4CC4)cs3)nc2c1,5%,-0.54
Cc1nc(CN[C@@H](C)CC(=O)N2CCCCCC2)sc1C,-9%,0.74
Cc1noc2ncnc(N[C@@H](C)CCc3ccccc3)c12,-6%,1.09
Cc1csc2ncnc(N3CC(C)OC(C4CC4)C3)c12 (stereo not given),-11%,1.47
Cc1nnsc1CN(C)C(=O)c1onc2ccccc12,-10%,2.01
CCCn1nnnc1CN(C)Cc1nccn1C,-13%,1.8
C[C@H]1CN(C(=O)NCc2ccc(Cl)s2)CCO1,-8%,1.53
O=C(Nc1cccc(-c2nc3ncccc3o2)c1)[C@@H]1OCCN(C2CC2)[C@H]1c1ccccc1,-20%,2.59
CCc1nccc(CN2CC[C@@H]3NC(=O)NCCNC(=O)c4cc(OCCOC)cc(c4)Oc4cccc(c4)CO[C@H]3C2)n1,-10%,1.23
C[C@H](Oc1ccccc1Br)C(=O)Nc1cc(-c2nccn2C)no1,1%,-0.1
c1ccc2c(-c3noc([C@H]4CCOC4)n3)n[nH]c2c1,-9%,0.95
CC(C)(C)c1ccc(S(=O)(=O)C2CS(=O)(=O)CC2N2CCN(c3ncccn3)CC2)cc1 (stereo not given),-6%,0.77
CS(=O)(=O)N1C[C@H]2CC[C@@H](C1)N(C(=O)Cc1ccc(F)cc1Cl)C2,-5%,0.96

Compound,% Inhibition,Z score
CN1C[C@@H](C(=O)NCC#CCOc2ccc3c(c2)OCO3)CC1=O,-21%,2.65
COc1ccc(-c2cnc3ncnn3c2N2CCCN(S(=O)(=O)c3ccc(F)c(F)c3)CC2)cc1,-9%,0.9
COCc1ccc(C(=O)NCC#N)cc1OC,-4%,0.59
CCc1ccc(C(C)(C)CN[C@H]2CCCS(=O)(=O)C2)cc1,-7%,0.98
CN1CCC[C@H](CNC(=O)c2ccc(F)c(COCC3CC3)c2)C1,-11%,1.19
CC(=O)Nc1onc(C)c1-c1ccc(C)c(S(=O)(=O)NC(C)C)c1,3%,-0.47
COCC(=O)N1C[C@@H](C)[C@H](c2nc(-c3ccccc3)no2)C1,-10%,1.2
COc1ccc2c(c1)CCN(CCn1cnnc1)CC2,-6%,0.65
CC1(C)NC(=O)N(CCN2CCOc3ccccc32)C1=O,-1%,0.11
CCn1nc(Cc2cccc(Cl)c2)nc1[C@H]1CC(=O)N(C)C1(C)C,-18%,2.09
O=C(Nc1cccc2c1CCCC2)n1ncc2cc(Cl)ccc21,-8%,1.24
COc1ccccc1CCNC(=O)N(C)CC1(O)CCCCCC1,-8%,1.19
CCc1cccc(NC(=O)CC(C)(C)C)c1,-12%,1.64
CC1CCCCC1NC(=O)C1c2cccn2CC(=O)N1CCc1ccc(Cl)cc1 (stereo not given),9%,-1.19
O=C(c1ccco1)N1CCn2nc(C3CC3)cc2C1,15%,-1.94
Nc1cc(C2CCN(S(=O)(=O)Cc3ccc(F)cc3)CC2)no1,10%,-1.61
CC(NCC(O)CC1CCCC1)c1cnn(C)c1 (stereo not given),-12%,1.51
COc1c(F)c(F)cc(C(=O)N2CC(Cn3cncn3)C2)c1F,-2%,0.4
CC(C)CC(C)(C)C(=O)NCCS(=O)(=O)c1ccccc1F,-7%,0.72
CC1(C)CN(C(=O)c2cnco2)c2ccc(Cl)cc21,3%,-0.51
O[C@@]1(C(F)F)CCN(CCOc2cc(Cl)cc(Cl)c2)C1,-14%,1.67
COc1cc(N[C@H]2CCCN(S(N)(=O)=O)C2)cc(OC)c1,-6%,0.85

Compound,% Inhibition,Z score
CC(=O)N1CCN(C(=O)c2c(C)noc2C(C)C)CC1,-9%,1.32
O=C(CN1CCC2(C1)OCCO2)Nc1cccc(C(=O)NC2CC2)c1,-14%,1.81
COCCc1nsc(N2CCNC(=O)CCN(C(=O)[C@H](C)n3cncn3)CC2)n1,-7%,0.67
O=C(c1ccc(N2CCN(C(=O)c3ccccc3)CC2)cc1)c1cccc(F)c1,-10%,1.96
CCc1nsc(N2CCOC[C@H]2C2CC2)n1,-4%,0.49
CCC(CC)(OC)c1noc([C@H]2CCCOC2)n1,-5%,0.7
c1ccc(C(c2ccccc2)N2CCN(c3nccs3)CC2)cc1,6%,-0.89
COc1ncccc1C(=O)NC[C@@H](c1ccsc1)N(C)C,-1%,0.18
Cn1nnc(CNC(=O)N2CCN(S(=O)(=O)c3ccccc3)CC2)n1,-3%,0.63
CN(Cc1ccncc1)Cc1ncnn1CC1CCCCC1,-12%,1.48
Cc1cc2cc(NS(=O)(=O)c3cccc4nsnc34)ccc2[nH]1,-7%,1.22
O=C(CNC(=O)OCc1ccccc1)NCc1cncc(-c2ccoc2)c1,18%,-2.27
C=C(C)CN(CC)C(=O)NCCc1ccc(S(N)(=O)=O)cc1,-4%,0.6
CCCCN(CC(=O)N(Cc1ccco1)Cc1cccn1C)C(=O)c1ccc(Cl)c(Cl)c1,-13%,2.26
Cc1ccc(-c2noc(C3CC3)n2)cc1-n1cc(C(=O)Nc2cccc(Cl)c2C)c(C)n1,2%,-0.29
O=C(Nc1ccc(C(=O)N2CCC[C@@H]2CN2CCOCC2)cc1)c1cccs1,-7%,1.44
CC(C)(C)c1cc(CN2CCCC[C@@H]2CC(=O)O)n[nH]1,3%,-0.48
CCc1ccc(CN2CCC[C@@](O)(CO)CC2)nc1,-2%,0.41
COc1ccc(CCOc2cc([C@@H](CC(N)=O)c3c(C)[nH][nH]c3=O)ccc2OC)cc1,-5%,0.61
